# The campaign covered roughly 44,000 compounds. About 340 (0.77%) were called active. Another 5% or so got no clear call; they are omitted. Calls come from the whole dose curve; as a rule, active = well fitted inhibition curve with a large enough effect; inconclusive = small, poorly fitted or top-dose-only effect; inactive = flat fitted curve, though single readings scatter. The list shows a part of the results.
# Assay: Acumen qHTS Assay for Inhibitors of the mTORC1 Signaling Pathway in MEF (Tsc2-/-, p53-/-) Cells: Sytravon; note: nearly all actives have a fitted effect of over 50% in size;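 for activity change, negative = inhibition: plate controls were DMSO for no effect and rapamycin for full effect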
# Details: phospho-rpS6 immunofluorescence/PI, 24 h; series mostly up to 38.3 µM; activity change, negative = inhibition: at the top concentration
# Method in brief: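 Cell-based qHTS: Tsc2-/- p53-/- MEF, 24 h cpd, 37 °C; fix/perm, anti-phospho-S6 Alexa-488 + PI; Acumen 488 nm scan; pS6/PI ratio, % positive cells; rapamycin 7.5 nM = inhibition ref; PI count = viability.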
# Potency is the fitted concentration of half-maximal effect.
Structure (SMILES),"activity change, negative = inhibition",Potency
Fc1cccc(-n2ncc3c2ncn2nc(COc4ccc(Cl)cc4)nc32)c1,inactive: 3.78%,
CCCC1=Nc2cc(C(=O)NCc3ccc(OC)cc3)ccc2Sc2ccc(C)cc21,inactive: -14.1%,
O=C(CSCc1cccc(F)c1)NCc1ccccc1,inactive: 7.64%,
CCC(C(=O)Nc1cc(OC)cc(OC)c1)n1nc(-c2ccc(C)c(C)c2)ccc1=O (stereo not given),inactive: -4.81%,
Cc1nc2scc(C)n2c(=O)c1S(=O)(=O)Nc1ccc(N2CCOCC2)c(Cl)c1,inactive: -29%,
CCOc1ccc(-c2nc(CSCC(=O)N3CCN(c4ccc(F)cc4)CC3)c(C)o2)cc1,inactive: -7.1%,
CCOc1ccc(C(=O)NCCn2cc(SCC(=O)Nc3ccc4c(c3)OCCO4)c3ccccc32)cc1,inactive: -2.67%,
CN1CCc2c(sc3c2C(=O)NC(c2ccc(OC(=O)c4ccc(C(C)(C)C)cc4)cc2)N3)C1 (stereo not given),inactive: -7.5%,
COc1cc(NC(=O)Cn2c(=O)n(Cc3ccco3)c(=O)c3sc4ccccc4c32)cc(OC)c1,inactive: -14.4%,
COCCCNc1oc(/C=C/c2cc(OC)c(OC)c(OC)c2)nc1C#N,inactive: 4.63%,
CCN(CC)C(=O)c1sc2c(c1C)c(=O)n(-c1ccc(Cl)c(Cl)c1)c(=O)n2Cc1ccccc1C#N,inactive: -4.42%,
Cc1ccc(N2CCN(C(=O)c3c(C)oc4ncn(CC(C)C)c(=O)c34)CC2)c(C)c1,inactive: 2.02%,
CCC(C)NC(=O)c1cc(-c2cccc(OC)c2)on1 (stereo not given),inactive: -10.5%,
Cc1cccc(NC(=O)CSc2ncc3c(n2)-c2ccccc2N(Cc2ccc(F)cc2)S3(=O)=O)c1C,inactive: -5.95%,
Cc1cc(-c2ccc(C)c(S(=O)(=O)N3CCN(c4cccc(C(F)(F)F)c4)CC3)c2)on1,inactive: 4.98%,
Cc1cccc(CCNC(=O)c2ccc3c(c2)N(Cc2ccccc2F)C(=O)c2ccccc2S3)c1,inactive: -3.39%,
Cc1ccc(Oc2c(C(F)(F)F)oc3c(CN4CCC(C)CC4)c(O)ccc3c2=O)cc1,inactive: 4%,
CCc1cccc(NC(=O)CCC(=O)N2CCSc3ccccc32)c1,inactive: -22.2%,
CN(C)c1ccc(-c2nc(-c3cc4cc(Cl)ccc4oc3=O)cs2)cc1,inactive: -3.05%,
Cc1cc2ccccc2n1-c1ccc(C(=O)N2CCC(C(=O)NCc3ccc(Cl)cc3)CC2)s1,inactive: 0%,

Structure (SMILES),"activity change, negative = inhibition",Potency
CC(=O)N1CCCc2cc(S(=O)(=O)N3CCC(C(=O)Nc4cccc(Cl)c4C)CC3)ccc21,inactive: 1.12%,
CCN(CC)C(=O)c1c(-c2ccccc2)c(-c2ccccc2)nn(C)c1=O,inactive: 1.54%,
CCc1ccc(C(=O)c2cn(CC(=O)Nc3cc(C)ccc3C)c3nc(C)ccc3c2=O)cc1,inactive: -0.896%,
O=C(CSc1nnc(-c2cccs2)o1)Oc1ccccc1,inactive: 0.0248%,
COc1ccc(N2CCN(C(=O)CCn3nc(C)c(S(=O)(=O)N4CCCC4)c3C)CC2)cc1,inactive: 0%,
O=C(CSc1nnc(-c2ccccc2)o1)c1cccc([N+](=O)[O-])c1,inactive: -11.6%,
O=C(Cn1ncc2c3ccccc3n(Cc3ccc(Cl)cc3)c2c1=O)NCc1ccccn1,inactive: -0.708%,
COC(=O)c1cc(S(=O)(=O)N2CCN(c3cccc(C)c3)C(C)C2)cn1C (stereo not given),inactive: -1.18%,
CCN(CC)CCCNC(=O)c1ccc2c(=O)n(CCc3ccccc3)c(=O)[nH]c2c1,inactive: -22.7%,
CCOc1ccc(C(=O)Nc2ccc3nc(SCCOc4ccccc4)sc3c2)cc1,inactive: -4.44%,
CCc1ccc(-n2cnc3cc(C(=O)NCc4ccc(C)cc4)ccc32)cc1,inactive: 4.96%,
CCOC(=O)c1c(C)[nH]c(CCC(=O)NCc2ccc(CC)cc2)c1C,inactive: 0%,
CC(=O)c1cccc(NC(=O)Cn2nc(C)n3cccc3c2=O)c1,inactive: -14.3%,
Cc1ccc(-n2ncc(C(=O)NCc3cccs3)c2C2CCN(C(=O)OC(C)(C)C)CC2)c(C)c1,inactive: 6.77%,
CCC(Sc1nc2cc(OC)c(OC)cc2c2nc(-c3ccccc3)nn12)C(=O)Nc1cccc(C)c1 (stereo not given),inactive: -5.79%,
O=C(NCc1ccccc1Cl)c1ccc(CSCc2ccccc2Cl)o1,inactive: 11.9%,
Cc1ccc(CSc2nnc(CCNC(=O)OC(C)(C)C)o2)cc1,inactive: 2.85%,
COc1ccccc1OC(C)C(=O)Nc1ccc(-c2nc3ccccc3s2)cc1 (stereo not given),inactive: 1.41%,
CCc1ccc(NC(=O)CCn2nc(-c3ccccc3OC)c3c(C)cc(C)nc32)cc1,inactive: -3.36%,
COc1ccc(NC(=O)CCn2c(=O)c3cccn3c3cccnc32)c(OC)c1,inactive: -3.24%,

Structure (SMILES),"activity change, negative = inhibition",Potency
CCC(C(=O)NCc1ccccc1)n1nc(C)c2sc3ccccc3c2c1=O (stereo not given),inactive: -5.41%,
CN(Cc1ccccc1)C(=O)Nc1ccc2c(c1)N(C)C(=O)c1ccccc1S2,inactive: -6.02%,
COc1ccc(-c2cc(C(=O)OC(C)C(=O)c3ccccc3)c3cccc(Cl)c3n2)cc1 (stereo not given),inactive: -11.1%,
c1ccc(Nc2c(-c3c[nH]c4ccccc34)nc3ccccn23)cc1,inactive: -6.49%,
CC(C)Nc1ccc(-c2nc(-c3ccco3)no2)cc1[N+](=O)[O-],inactive: 4.45%,
Cc1ccc(C2c3[nH]c4ccccc4c3CCN2C(=O)c2cccc(C)c2)cc1 (stereo not given),inactive: -8.22%,
CCOCCCNC(=O)C(c1ccc(C)cc1)N(Cc1ccc2c(c1)OCO2)C(=O)c1ccc(NC(C)=O)cc1 (stereo not given),inactive: 3.46%,
CCC(C)NC(=O)c1ccccc1NC(=O)CN1C(=O)c2cccc3cccc1c23 (stereo not given),inactive: 13.5%,
COc1cc2cc(CNc3ccc(C)cc3)c(=O)n(CC(=O)Nc3ccc(F)cc3F)c2cc1OC,,active: 5.21 µM
COc1cc(C(=O)NCC(c2cccs2)S(=O)(=O)c2ccc(F)cc2)cc(OC)c1OC (stereo not given),inactive: -1.72%,
CC(C)NC(=O)CN1C(=O)COc2ccc(S(=O)(=O)N3CCCCCC3)cc21,inactive: -10.1%,
CCOC(=O)c1c(C)[nH]c(CCC(=O)Nc2ccc(C)c(F)c2)c1C,inactive: -1.45%,
Cc1cccc(OCC(=O)Nc2ccc(Cl)c(-c3nc4ncccc4o3)c2)c1C,inactive: -1.83%,
Cc1cccc(NC(=O)c2nnn(CC(=O)Nc3ccc(C(C)C)cc3)c2N)c1C,inactive: 7.43%,
CCC(=O)N1CCc2cc(Br)cc(S(=O)(=O)CCC(=O)NCc3ccc(Cl)cc3)c21,inactive: 0.223%,
Cc1nc(Oc2ccc(F)cc2Cl)c2oc3ccccc3c2n1,inactive: 0.349%,
CCOc1ccccc1NC(=O)CN(C)S(=O)(=O)c1ccc2nc(C)sc2c1,inactive: -0.339%,
Cc1ccc(NC(=O)CCc2nnc3n(C)c(=O)c4sccc4n23)cc1C,inactive: 1.41%,
CSC1=NC2(CCN(C(=O)NC3CCCCC3)CC2)N=C1c1ccc(C)c(C)c1,inactive: 0.0621%,
Cc1ccc(CNC(=O)CC(C)S(=O)(=O)c2cc3c(cc2C)NC(=O)CO3)cc1 (stereo not given),inactive: 1.16%,

# — PubChem BioAssay AID493208 (National Center for Advancing Translational Sciences (NCATS), 2011)
